B1: CPEB3 Ribozyme (parent)
chain: UAACAGGGGGCCACAGCAGAAGCGUUCACGUCGCAGCCCCUGUCAGAUUCUGGUGAAUCUGCGAAUUCUGCUGUAUAUCUC

The source gives no read counts; variants with many changes may rest on few reads.

In the data set the parent is B1. The experiment in a line: self-cleavage, relative activity (ratio to wild type); higher = more cleavage; in vitro, sequencing. In outline:
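Barcoded CPEB3 ribozyme mutants, produced by rounds of error-prone PCR, self-cleaved while being transcribed with T7 RNA polymerase for 5 hours at 37°C and during a subsequent 15 min DNase I step before EDTA was added. Sequencing of template-switched cDNA on Illumina gave cleaved and total reads, and DNA sequencing assigned barcodes to variants. Each variant's relative activity is its cleaved/total read fraction divided by the unmutated ribozyme's fraction, averaged across three batches. A variant needed a minimum of 5 reads.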
Consider A21G A47U A56G A64G, for which the self-cleavage was found to be 0.33.
As for A21G A35G U43C U51A, the figure is 0.56; as for A20U U54A A57U U60A G63A, 0.15; as for A20U U43C U48C U69A U72C, 0.09.
For the variant A21C U51A A57G, the self-cleavage was found to be 0.09.
As for A21G C59G A64U U78C, the figure is 0.1; as for A21G C23U U25C C59U, 0.47.
As for A21G G22U G33C U41C G55U, the self-cleavage turned out to be 0.07.
Consider A21C C37U U48C, for which the self-cleavage turned out to be 0.14.
As for A20U U31C U72C, the self-cleavage amounted to 0.25.
As for A21G A57G U69A U78C, the figure is 0.23.
Take A21G A45G C50A U78C: the self-cleavage is 0.12.
For A20U U26G U48C, the self-cleavage is 0.19.
In the case of A20U U26C A64G, the self-cleavage was 0.42.
For the variant A21G A35G U41A, the self-cleavage is 0.21.
Take A21G G24C U76C: the self-cleavage was found to be 0.08.
As for A21G G61U U74A, the figure is 0.72.
As for A21G C34U U69A U74C U78A, the figure is 0.11; as for A21G G24A U51A U60C U80C, 0.23; as for A21G G22U A47G, 0.19.
On to A20U U41C A64U U72C, for which the self-cleavage came out at 0.14.
As for A21G U25C A28U A35G, the figure is 0.33; as for A21G A45G U60A, 0.2; as for A21G A57U U72C U80C, 0.25.
As for A21G A56G C62U U72A U78C, the figure is 0.14; as for A20U U31G A64G U74C, 0.09.
As for A21G G30A C39A U54A C59A U67C, the figure is 0.05; as for A21G U25C C32A A45U U48C, 0.15; as for A21G A57G U67C, 0.14.
As for A21G A57U U74C, the self-cleavage amounted to 0.53.
As for A21G A47U U74A, the figure is 0.44.
As for A21C A45G A57G C71A, the figure is 0.07.
As for A21C U26C U74A, the figure is 0.32.
With A20U U41C U80A, the self-cleavage amounted to 0.52.
As for A21G C23U U48A U58C, the figure is 0.22; as for A21G C40U A56G U66A, 0.09; as for A21G A35G U72C, 1.2.
As for A21G A45G C68A, the figure is 0.44; as for A21G A28G U49C C71A, 0.1; as for A21G A28U A35U U51A U78C, 0.06.
As for A21G C32G U49C U80A, the figure is 0.06.
On to A21G G33U U49A A77G, for which the self-cleavage came out at 0.05.
As for A21G A57U U60C, the figure is 0.12; as for A21G U25C C32G, 0.14.
A21G A28U A47G A56G A57G U78C: the self-cleavage stood at 0.17.
With A21G C23G U41C A64G, the self-cleavage is 0.19.
For the variant A21G A28U C29A A35U U41A A64U, the self-cleavage came to 0.08.
As for A21G A28G U66A, the figure is 0.12; as for A21G A28U U41A A64G, 0.1.
For the variant A21G A28C A57G, the self-cleavage was 0.27.
As for A21G G24A A64U, the figure is 0.11; as for A21G A64U U67A, 0.08.
As for A20U U41C A64C, the figure is 0.14; as for A21G G52A U66C, 1.16; as for A21G A28C U49C U60A A75G U78C, 0.05.
A21G C34A A45U U49C U58A: the self-cleavage is 0.05.
In the case of A21G A75G A77U, the self-cleavage came out at 0.33.
As for A21G A45G U54C, the figure is 0.4.
As for A21G A45G A64U U67A U80A, the figure is 0.11.
For A21G C32A A57G A65G, the self-cleavage stood at 0.17.
For A21G G22A U26C C59G, the self-cleavage came out at 0.08.
As for A21G A28G A45U U74C, the figure is 0.08; as for A21G U25A U26C, 0.22; as for A21G A56U A57G U60C, 0.19.
A21G U25A U49A U60C: the self-cleavage was 0.08.
As for A21G A45C G46A, the figure is 0.18.
For A21C C40A U51A, the self-cleavage worked out at 0.18.
As to A21G U25C A28C C40A U43C A57U, the self-cleavage came out at 0.27.
As for A20U U31A U54G U67C, the figure is 0.11; as for A20U U26C C32U U78C, 0.1.
As for A20U U41C U51A, the figure is 0.2; as for A21G G33A A45G U58G U80C, 0.26; as for A20U U43C A45G U69C, 0.07.
As for A21G C62U U80A, the figure is 0.11; as for A21G A45G A64U, 0.28; as for A21G G46A U78A, 0.35.
On to A21G G36A C40U U72A, for which the self-cleavage turned out to be 0.31.
Turning to A21G C32U C40G A77C, the self-cleavage was 0.2.
As for A21G G33A U69A, the figure is 0.06.
As for A21G C23U U31G A47G A65G C68G U80C, the self-cleavage came to 0.05.
As for A20U U26C A45U, the figure is 0.35; as for A20U U43G U69C, 0.14.
As for A20U U31C A57G U66C, the self-cleavage was 0.11.
As for A21G G73U U80C, the figure is 0.86; as for A21G A45G A56U, 0.15.
A20U U41A C44A C71U U78A: the self-cleavage came out at 0.09.
A21G A35G U67C: the self-cleavage stood at 0.43.
A21G A35U U58G U66C: the self-cleavage was 0.12.
Consider A20U U48C U74G, for which the self-cleavage stood at 0.33.
As for A20U U26C U80G, the figure is 0.09; as for A21G G22A A45U A47C U51A U58C U76C, 0.04; as for A21C A35C A45U U69A, 0.2.
On to A21G A45G U66C, for which the self-cleavage was 0.91.
As for A21G A35G C50U, the figure is 1.2; as for A21G A28U U31A U66C U80C, 0.43.
As for A21G G24A U54A, the figure is 0.14.
As to A21C A47G U78C, the self-cleavage turned out to be 0.35.
As for A20U U31A A35U A45G, the figure is 0.14; as for A21C A35U U43C A64G, 0.14.
As for A21G A45G U60A U66C G73C A75G, the figure is 1.07; as for A21G A28G G33U C40U U49C U60A, 0.05; as for A21G C29A U51C, 0.25.
With A21G G53A U80C, the self-cleavage turned out to be 0.71.
A20U U26C C37U: the self-cleavage is 0.2.
For A21G A28G U41A A64G, the self-cleavage stood at 0.14.
With A21C U41C U43A A65G U78A, the self-cleavage is 0.14.
As for A20U U49C U54C, the figure is 0.16; as for A21G A35U C37U U41C U54A U80C, 0.21; as for A21G A28G C38G A45G U51A U78C, 0.05.
As for A21G C23U U31A A47U U60C A77U, the figure is 0.04.
As for A20U U43C A45G, the figure is 0.45; as for A21C A45G A64G U66C C68A, 0.05.
Consider A21G U25C A28G U72A, for which the self-cleavage was 0.07.
As for A21G G22A C23U U41C A45C C50A U67C, the figure is 0.1; as for A21G C40A G63U, 0.37; as for A21G C44U A45G U78C, 0.16.
As for A20U U41A U67C, the figure is 0.3.
With A21G A45G U74A A75G, the self-cleavage amounted to 0.43.
As for A21G U25A U54C A75U U78C, the figure is 0.09; as for A21G C29U C40U A47G U54G A77U U80A, 0.04; as for A21G A35G U41A U54A, 0.37.
On to A20U U51A U72A, for which the self-cleavage was 0.17.
As for A20U U26C C38G U51C A64U, the figure is 0.07.
As for A21G A28U A35C U49A U67C, the figure is 0.14; as for A21G A28U U41C A47G, 0.42.
As for A21G A65G G70U, the figure is 0.16; as for A21G A28U U51C A56G C62U, 0.1.
As for A21G A57G U60A U72C, the self-cleavage was 0.11.
A21G U25C A47G U54C G70A U72C: the self-cleavage stood at 0.06.
As for A21C U66C U69C, the figure is 0.08; as for A21G G30U U43C A64G, 0.13; as for A20U U49C U51A U78A, 0.1.
As for A20U U31A U76C, the figure is 0.67; as for A21G C37G C40A U49A U60C A75U, 0.22; as for A21G A35U U74C A77U, 0.35.
As for A20U U43C U58A U74C, the figure is 0.11.
For the variant A21C A47G A65U, the self-cleavage was 0.06.
As for A21G G24U C38A U51C, the figure is 0.05; as for A21G C62U A65G U72C, 0.18; as for A21G A35G U60A U76C, 1.1.
For the variant A21G A28G U60A C71U, the self-cleavage came out at 0.06.
Regarding A20U U41C U48C A56U, the self-cleavage worked out at 0.07.
For A21G A47C U54C C81A, the self-cleavage was 0.25.
Turning to A20U U26C A45U G53C A77G, the self-cleavage is 0.09.
As to A20U U54G A64G U78C, the self-cleavage amounted to 0.07.
With A21G U25C C34A G73U A77C, the self-cleavage amounted to 0.09.
As for A21G A35U U41A A45G A56G, the figure is 0.18; as for A21G G52C A57U U78C, 0.3.
As to A21G A45G U66C U69A U74C U78A, the self-cleavage amounted to 0.19.
In the case of A21G U25C A57G, the self-cleavage came to 0.19.
In the case of A21G A28G U49A U51A A57G A64G U72C, the self-cleavage turned out to be 0.02.
As for A21G A28U U31A A57G, the figure is 0.16; as for A21G U25C A57G U72A, 0.03.
As for A21C G63C U69C U80C, the self-cleavage worked out at 0.13.
With A21G U25C A45C U60C U72C U76C, the self-cleavage was 0.11.
Take A21G C39U U51C C81U: the self-cleavage turned out to be 0.38.
As for A21G G52U U54A U72C, the figure is 0.5.
As for A21G A35U U60A, the figure is 0.2; as for A21G U25A A35G U41A U43C A57G, 0.35.
For A21G A64G U72C, the self-cleavage was found to be 0.19.
As for A20U U26C A35G C37U U43C U54C U67C, the figure is 0.2; as for A21G U25C A47G U54C A64G, 0.07.
As for A21G A35U U49C A56U A77U, the figure is 0.08; as for A20U U31C G42A U51C, 0.11; as for A20U U51C U58C U60A, 0.13.
As for A21G C38U U41A A47G U51A U78C, the figure is 0.06; as for A20U U31C A35U A64G, 0.14.
